Measurements reported in publication PMC4336329 (PLoS ONE, 2015).
Screen size: about 310,000 compounds; about 14,000 (4.5%) showed an effect of 50% or more. The effect is printed as a negative number. The list shows a part of the results.
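Note: peak tail current of the secondary pulse compared with the same well before compound.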

What follows are molecules tested against human ether-à-go-go-related gene (hERG) potassium channel (human, UniProt Q12809) (assay: primary screen, population patch clamp on CHO cells stably expressing hERG).
Chain of human ether-à-go-go-related gene (hERG) potassium channel (Q12809 whole entry, looked up): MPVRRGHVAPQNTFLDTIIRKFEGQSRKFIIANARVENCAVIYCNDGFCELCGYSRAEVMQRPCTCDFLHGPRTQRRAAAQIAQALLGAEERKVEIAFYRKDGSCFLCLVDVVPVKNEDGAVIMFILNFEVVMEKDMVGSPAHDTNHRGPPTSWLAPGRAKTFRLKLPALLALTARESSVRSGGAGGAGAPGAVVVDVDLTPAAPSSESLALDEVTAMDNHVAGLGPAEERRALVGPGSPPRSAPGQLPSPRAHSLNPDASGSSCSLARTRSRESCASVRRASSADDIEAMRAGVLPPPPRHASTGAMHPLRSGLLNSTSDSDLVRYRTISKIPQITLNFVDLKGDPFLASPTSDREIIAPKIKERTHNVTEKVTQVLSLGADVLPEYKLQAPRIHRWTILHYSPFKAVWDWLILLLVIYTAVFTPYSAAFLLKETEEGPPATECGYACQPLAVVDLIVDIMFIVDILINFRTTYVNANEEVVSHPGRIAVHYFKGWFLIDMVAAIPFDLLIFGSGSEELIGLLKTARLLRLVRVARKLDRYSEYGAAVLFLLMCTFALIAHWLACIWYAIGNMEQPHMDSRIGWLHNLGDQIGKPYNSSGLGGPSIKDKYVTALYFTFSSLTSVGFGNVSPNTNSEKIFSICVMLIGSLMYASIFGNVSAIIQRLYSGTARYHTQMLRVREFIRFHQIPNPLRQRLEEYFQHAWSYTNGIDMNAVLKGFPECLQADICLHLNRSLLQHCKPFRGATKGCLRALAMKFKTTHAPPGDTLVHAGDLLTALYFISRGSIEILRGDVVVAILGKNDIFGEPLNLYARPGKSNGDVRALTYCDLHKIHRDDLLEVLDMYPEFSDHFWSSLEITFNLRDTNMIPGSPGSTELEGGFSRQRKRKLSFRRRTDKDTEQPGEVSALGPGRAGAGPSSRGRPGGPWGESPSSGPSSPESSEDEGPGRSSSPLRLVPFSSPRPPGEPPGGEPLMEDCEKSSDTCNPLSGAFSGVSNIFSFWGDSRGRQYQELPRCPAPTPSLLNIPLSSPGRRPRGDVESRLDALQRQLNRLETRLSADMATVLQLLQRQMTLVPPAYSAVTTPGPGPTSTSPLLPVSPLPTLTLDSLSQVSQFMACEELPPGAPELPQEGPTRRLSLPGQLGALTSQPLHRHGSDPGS
CC(NC(=O)C(=O)NCCN1CCN(C(=O)c2ccccc2Br)CC1)c1ccccc1 (stereo not drawn) was tested, and the “hERG current change (%, negative = inhibition) at 10uM” value was 6.37%. For O=C(OCC(F)(F)C(F)F)c1ccccc1C(=O)Oc1ccc(F)cc1F, the “hERG current change (%, negative = inhibition) at 10uM” value was 9.98%. For Cn1cc(CNC(=O)c2cc(-c3ccc(Br)cc3)nc3ccccc23)cn1, the “hERG current change (%, negative = inhibition) at 10uM” value was -21.3%. In the case of CC[n+]1ccc(C(=O)NCc2ccccc2)cc1.[Cl-], the “hERG current change (%, negative = inhibition) at 10uM” value is reported as 13%. With O=C(NCCCn1ccnc1)c1cccc(S(=O)(=O)Nc2ccccc2F)c1 the “hERG current change (%, negative = inhibition) at 10uM” value was 13.5%. With CSc1ncccc1C(=O)OCC(=O)NC(C)C the “hERG current change (%, negative = inhibition) at 10uM” value was -0.02%. In the case of CCN(C(=O)CSc1nnc(Nc2ccccc2C)s1)C1CCS(=O)(=O)C1 (stereo not drawn), the “hERG current change (%, negative = inhibition) at 10uM” value is reported as -6.24%. COc1cccc(-c2nc3ccc(O)cc3c(=O)o2)c1 was tested, and the “hERG current change (%, negative = inhibition) at 10uM” value was 1.21%. For Cn1c(N)c(N=Nc2ccc(S(N)(=O)=O)cc2)c(=O)n(C)c1=O, the “hERG current change (%, negative = inhibition) at 10uM” value was 27.6%. CC(C(=O)Nc1ncn[nH]1)N1C(=O)c2ccccc2C1=O (stereo not drawn) was tested, and the “hERG current change (%, negative = inhibition) at 10uM” value was 17.4%. For COc1cc(CN2CC(C)CC(C)C2)cc([N+](=O)[O-])c1O (stereo not drawn), the “hERG current change (%, negative = inhibition) at 10uM” value was 6.83%. In the case of CCn1c(Cc2ccccc2)nnc1SCC(=O)N1CCCCC1, the “hERG current change (%, negative = inhibition) at 10uM” value is reported as 9.16%. In the case of CCOC(=O)c1c(/N=C/c2cccc([N+](=O)[O-])c2O)sc(C)c1C, the “hERG current change (%, negative = inhibition) at 10uM” value is reported as 15.7%. In the case of Cc1ccc(S(=O)(=O)n2cccc2C)cc1, the “hERG current change (%, negative = inhibition) at 10uM” value is reported as 8.19%. With O=C(NC1CCN(Cc2ccccc2)CC1)C1CCCN(S(=O)(=O)c2cccc3nonc23)C1 (stereo not drawn) the “hERG current change (%, negative = inhibition) at 10uM” value was -55.9%. For Cc1cc(Nc2ccc(Cl)cc2)n(-c2cccc(Cl)c2)n1, the “hERG current change (%, negative = inhibition) at 10uM” value was -14.6%. CCC(C)C1C(C#N)=C(N)Oc2n[nH]c(-c3ccccc3)c21 (stereo not drawn) was tested, and the “hERG current change (%, negative = inhibition) at 10uM” value was 7.56%. With O=C(NC1=NCCS1)c1cccs1 the “hERG current change (%, negative = inhibition) at 10uM” value was 8.14%. For Cc1ccc(C)c(NC(=O)CCN2C(=O)C3CC=CCC3C2=O)c1 (stereo not drawn), the “hERG current change (%, negative = inhibition) at 10uM” value was 8.84%. With CCOC(=O)c1ccc(NC(=O)CSc2nnc(-c3cccs3)n2CC)cc1 the “hERG current change (%, negative = inhibition) at 10uM” value was 5.69%. For CC(=O)Nc1ccc(S(=O)(=O)N2CCN(C(=O)c3ncoc3-c3ccc(F)cc3)CC2)cc1, the “hERG current change (%, negative = inhibition) at 10uM” value was -7.72%. O=C(O)c1cc(NC(=O)c2cccc(C(=O)Nc3cc(C(=O)O)cc(C(=O)O)c3)c2)cc(C(=O)O)c1 was tested, and the “hERG current change (%, negative = inhibition) at 10uM” value was 15.8%. With COc1cc(N2CCOCC2)ncn1 the “hERG current change (%, negative = inhibition) at 10uM” value was -3.69%. O=S(=O)(c1ccc(Oc2ccccc2)cc1)N1CCOCC1 was tested, and the “hERG current change (%, negative = inhibition) at 10uM” value was 0.463%. CN(Cc1ccon1)C(=O)CC1C(=O)NCCN1Cc1cccc(Oc2ccccc2)c1 (stereo not drawn) was tested, and the “hERG current change (%, negative = inhibition) at 10uM” value was -13.2%. In the case of COc1ccc(Cl)cc1NC(=O)c1sc2nc(C)nc(N3CCOCC3)c2c1C, the “hERG current change (%, negative = inhibition) at 10uM” value is reported as 6.35%. In the case of COc1cccc(C(=O)C2CCCN(Cc3ccc(F)cc3)C2)c1 (stereo not drawn), the “hERG current change (%, negative = inhibition) at 10uM” value is reported as -18.6%. C=CCNc1ccc(C(=O)O)cc1 was tested, and the “hERG current change (%, negative = inhibition) at 10uM” value was -12%. In the case of COc1ccc(-c2c(-c3ccc(OCC(=O)NN)cc3O)n[nH]c2C)cc1, the “hERG current change (%, negative = inhibition) at 10uM” value is reported as -1.49%. For Nc1ccccc1C(=O)NNC1=C(C(=O)C(F)(F)F)CCC1, the “hERG current change (%, negative = inhibition) at 10uM” value was 8.37%. Cc1noc(C)c1C(=O)OCC(=O)Nc1ccccc1C(=O)NC(C)c1ccccc1 (stereo not drawn) was tested, and the “hERG current change (%, negative = inhibition) at 10uM” value was -18.6%. For COc1cccc(CN(C)C(=O)c2ccc(C)c(S(=O)(=O)N3CCCCC3)c2)c1, the “hERG current change (%, negative = inhibition) at 10uM” value was -27%. With CC12CCC(=O)N1C(C(=O)N1CCN(S(=O)(=O)c3ccc(F)c(F)c3)CC1)CS2 (stereo not drawn) the “hERG current change (%, negative = inhibition) at 10uM” value was -53.7%. In the case of Cc1ccnc(SCC(=O)N2CCN(c3ccccc3)CC2)n1, the “hERG current change (%, negative = inhibition) at 10uM” value is reported as -2.6%. In the case of O=C(Nc1ccon1)c1cnc2sccn2c1=O, the “hERG current change (%, negative = inhibition) at 10uM” value is reported as 6.34%. With CC(C)CN1CCC(=O)N(CCO)CC1 the “hERG current change (%, negative = inhibition) at 10uM” value was 1.33%. For CCS(=O)(=O)c1ccc2oc(Nc3ccccc3C)nc2c1, the “hERG current change (%, negative = inhibition) at 10uM” value was -0.135%. In the case of CCOC(=O)C1=C(C)N(CCCC(=O)O)C(=O)NC1c1ccc(OC)cc1 (stereo not drawn), the “hERG current change (%, negative = inhibition) at 10uM” value is reported as -0.38%. For CCOC(=O)C1=C(c2ccccc2)Nc2ncnn2C1c1ccc(C(=O)O)cc1 (stereo not drawn), the “hERG current change (%, negative = inhibition) at 10uM” value was -21.2%. CC(C)(C)C(=O)NC(=S)Nc1cccc(C(=O)O)c1 was tested, and the “hERG current change (%, negative = inhibition) at 10uM” value was -1.75%. With COc1cccc(N2CC(C(=O)Nc3nnc(SCCC4OCCO4)s3)CC2=O)c1 (stereo not drawn) the “hERG current change (%, negative = inhibition) at 10uM” value was 5.65%. With CC(C)C(c1nnnn1Cc1ccco1)N1CCN(C2CCCC2)CC1.Cl (stereo not drawn) the “hERG current change (%, negative = inhibition) at 10uM” value was -3.68%. NNC(=O)CS(=O)(=O)c1ccc(Cl)cc1 was tested, and the “hERG current change (%, negative = inhibition) at 10uM” value was 11%. In the case of CCCCN(Cc1nc2ccccc2c(=O)[nH]1)C(=O)COc1ccc(F)cc1Cl, the “hERG current change (%, negative = inhibition) at 10uM” value is reported as 2.89%. In the case of O=C(N=C1c2ccccc2CN1c1ccc(F)c(Cl)c1)c1cccnc1Cl, the “hERG current change (%, negative = inhibition) at 10uM” value is reported as -3.77%.
